Assay results reported in the supplement of paper PMC12632987.
Over roughly 4,500 sequences, “median log2 fold change of GCK-ALFA target abundance (FLAG IP / Myc IP barcode read proportion)” has its median near 0.078; the lowest 2% begin near -0.6. This is one part of the list.

B1: GBRAP_11_2642 (protein)
chain: KKEKLKEALKLAKEAIKALKKLLKEGVDNEELWKKIKELLEKLAKLVEKYADESLKKLVKIAKELLKKAEEDPENKKEYVENLLAALRVLAAELEELIEE
B2: GBRAP_52_6272 (protein)
chain: MEEEAKKLAEEFLDVVLNKSEEEIKKFAKELVENNSQELIAKTLEIVVKMSEELNLEEIEKVLDAFLILEDELEEAGKDPLPAEDAAARIAGLALEKEAE
B3: GBRAP_52_6329 (protein)
chain: SREEVERLAEELYRAIEAGDEERAKELAERAVEELSSEEILELTRIVAERVSKEGYEVQVRFTEVAEYLAELVEEKRGDERTAAEILGIVARTLYAAELA
B4: GBRAP_160_3975 (protein)
chain: MEKVEELLKEIKELVEETIELIEGESFEERLTIIKMTMGEIILLVDESEEVSDEAEEKVAEIGDETIEYIESHPELTDEEIKELLKETEEKIKEVILEDS
B5: GBRAP_35_5584 (protein)
chain: DIEQIILDTVRDWAEATIEAIKEEDDETVISLTKAFIRTVKLAIEDLKNNKKALEEIIKEIEKVIKALEKYRSDNEEIKKLIKELKKLKKEAEKLAKENE
B6: GBRAP_160_3991 (protein)
chain: SEEIEKLKEEFKKLFDEMLELAEGESPEERLAVVRVMMGEVILLAEESGVVSDEAEEEIAKIMDELVATVEANPDMSMEELKALVEEALKKIFEVIDKYS
B7: GBRAP_160_4289 (protein)
chain: EEEAEKLKKEVEEIAKETIEMMKGETREERVTLVRVAGGEVAWLLSENPNISDETVEKVLKIWDEVAETIEKNPNLTDEEIEELIEKAVEEAKKIIEEEY
B8: GBRAP_83_6965 (protein)
chain: MEKITVATTKDHIDSAIEAARDLATEEGYEVTIEIIGSPEEVLESAEKAAEALKDIPNVEILAAVENVRPEEAEELKKRLAEIGKKYGLKVEVRYEIVEP
B9: GBRAP_78_6658 (protein)
chain: ELEEALDKAEEAARELLKKAKKVDPELANLAAEADVLVGEARLLYEIEKASPEEIKKALKEAKKAAEELAKKAKKKDKEVAELAEKLIKLLEEAIKLLEK
B10: GBRAP_52_5860 (protein)
chain: MVEEALEKLRKAVEAMKAGKEEEAEKILKEIVENFDEETILAAAEAFAKEMATATPEEAEAAFRTAEMLGKILEEAGFDEEVVTLIEDTIGAAVARVEAA
B11: GBRAP_160_4734 (protein)
chain: SERIEKAVEEAKEEFLEAVDDTADLSKEEQRAVFEGTAGEVLMDFIEDPNFSDEMEDTAAKMLDELVEELAANYDASVEEKKAIVEEKMEKLKKELLKLA
B12: GBRAP_160_4724 (protein)
chain: DPRLEALVAEARELLTEAVELSEDLSREEARALFETAAGEVLLDFAEDPFVTDEMEEKAAEILDELVAELVANYDASLEEKKAIVDRHMERLLEELKKLA
B13: GBRAP_160_4646 (protein)
chain: SESLKDILEIIDFYTEIAKEAIDEGDLDNAIAAMRMMTGDVVLEADEDPRFSEEDVDELDELGRKAVAELEAAKDASPEELKALVEKGAEELKKKIEEFY
B14: GBRAP_160_4822 (protein)
chain: SATVEEMKKLVDATTAEALALVAGETAANRAAIVAVEFGQLVLELSERPEVTDELEDKIAAIGDALVAHIAANPDLTDAELAAAIEAARDAIIAAIESSF
B15: GBRAP_35_5539 (protein)
chain: NEEEEEVEMIVNTMEDLVDALPDVSPEDRAALAEHLIRLAEDIVKDKPKNEKLIERAIKNLERAIEILKKSDLPEEDRERLIERLKEVKEELKKILKENK
B16: GBRAP_160_4130 (protein)
chain: KEELKKLKEEIKEIAEEAIKMIEGESVEEAKVIARVALGEIIMLVESNEAVSEELEEKIGEIADEAEEYLDENPDLSVEEIKELLKETAEKIVELIEKEI
B17: GBRAP_11_2906 (protein)
chain: KKEKLKKAAKLAKEAAKLLKKLIEEGAEDEELWKKAKKALEELLKLAEEYLDESDVELAKEALELLEKAKEDPENAEKYLKEALAITRVLEGQILLAIEE
B18: GBRAP_160_4777 (protein)
chain: SEKIEELLKAIEEAEKRILEAIDELSPEETIVVARGEAGDILMLAFEANPDNDELEEALDEILDKLIEELEKAKDASPEEQKKIVKEHAKKMKETVKKLN
B19: GBRAP_9_7128 (protein)
chain: REELIEKLAEVVKDMIEDISKVVPSLTEEQKEEFLKRVEKLKEELLKDKTATPEEIAEKFKKLVREIRDEVKKIVNEEEAKLVDAISLTAEEEIDEIVEE

molecular target: GABARAP, O95166; test: median log2 fold change of GCK-ALFA target abundance (FLAG IP / Myc IP barcode read proportion) (log2 ratio); each designed protein is fused to an ALFA-tag nanobody in HEK293 cells to bring the named protein to FLAG-tagged glucokinase (GCK); Myc marks an untargeted standard; higher = target protein stabilised (more abundant); conditions: target protein: 3xFLAG-MCP-GCK-ALFA reporter; HEK293 landing pad (RPLP)
Sequence (O95166 whole entry, the tested form may be a part): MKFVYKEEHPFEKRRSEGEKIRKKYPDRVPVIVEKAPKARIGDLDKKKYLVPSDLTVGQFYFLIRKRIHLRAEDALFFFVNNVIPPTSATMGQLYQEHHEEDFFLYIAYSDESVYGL
Method in brief: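 Binders fused to an ALFA nanobody were recombined as a library into HEK293 landing-pad cells, which were induced with 2 μg mL^−1 doxycycline and then transfected to express a FLAG-tagged target and a Myc-tagged standard. After 48 h, circular RNA barcodes recovered by anti-FLAG and anti-Myc immunoprecipitation of lysates were reverse transcribed, amplified and sequenced. Each binder's target abundance is the median log2 ratio of FLAG to Myc barcode read proportions, from barcodes present at ≥10^−7 in both replicates, binders carrying ≥3 barcodes per replicate, a 10^−6 pseudocount and pooled replicates.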

Binder	median log2 fold change
B1	-0.358
B2	0.138
B3	0.164
B4	-0.342
B5	0.136
B6	-0.567
B7	-0.297
B8	0.0811
B9	0.143
B10	0.165
B11	-0.00503
B12	-0.149
B13	-0.16
B14	-0.284
B15	0.048
B16	-0.457
B17	0.059
B18	-0.0291
B19	0.384
